Reference: publication PMC4336329 (PLoS ONE, 2015)
The campaign covered roughly 310,000 compounds. About 14,000 (4.5%) showed an effect of 50% or more. The effect is printed as a negative number. The list shows a part of the results.

Molecular target: human ether-à-go-go-related gene (hERG) potassium channel (human, UniProt Q12809)
Assay: primary screen, population patch clamp on CHO cells stably expressing hERG
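Further: peak tail current of the secondary pulse compared with the same well before compound.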

Chain of human ether-à-go-go-related gene (hERG) potassium channel (Q12809 whole entry, looked up): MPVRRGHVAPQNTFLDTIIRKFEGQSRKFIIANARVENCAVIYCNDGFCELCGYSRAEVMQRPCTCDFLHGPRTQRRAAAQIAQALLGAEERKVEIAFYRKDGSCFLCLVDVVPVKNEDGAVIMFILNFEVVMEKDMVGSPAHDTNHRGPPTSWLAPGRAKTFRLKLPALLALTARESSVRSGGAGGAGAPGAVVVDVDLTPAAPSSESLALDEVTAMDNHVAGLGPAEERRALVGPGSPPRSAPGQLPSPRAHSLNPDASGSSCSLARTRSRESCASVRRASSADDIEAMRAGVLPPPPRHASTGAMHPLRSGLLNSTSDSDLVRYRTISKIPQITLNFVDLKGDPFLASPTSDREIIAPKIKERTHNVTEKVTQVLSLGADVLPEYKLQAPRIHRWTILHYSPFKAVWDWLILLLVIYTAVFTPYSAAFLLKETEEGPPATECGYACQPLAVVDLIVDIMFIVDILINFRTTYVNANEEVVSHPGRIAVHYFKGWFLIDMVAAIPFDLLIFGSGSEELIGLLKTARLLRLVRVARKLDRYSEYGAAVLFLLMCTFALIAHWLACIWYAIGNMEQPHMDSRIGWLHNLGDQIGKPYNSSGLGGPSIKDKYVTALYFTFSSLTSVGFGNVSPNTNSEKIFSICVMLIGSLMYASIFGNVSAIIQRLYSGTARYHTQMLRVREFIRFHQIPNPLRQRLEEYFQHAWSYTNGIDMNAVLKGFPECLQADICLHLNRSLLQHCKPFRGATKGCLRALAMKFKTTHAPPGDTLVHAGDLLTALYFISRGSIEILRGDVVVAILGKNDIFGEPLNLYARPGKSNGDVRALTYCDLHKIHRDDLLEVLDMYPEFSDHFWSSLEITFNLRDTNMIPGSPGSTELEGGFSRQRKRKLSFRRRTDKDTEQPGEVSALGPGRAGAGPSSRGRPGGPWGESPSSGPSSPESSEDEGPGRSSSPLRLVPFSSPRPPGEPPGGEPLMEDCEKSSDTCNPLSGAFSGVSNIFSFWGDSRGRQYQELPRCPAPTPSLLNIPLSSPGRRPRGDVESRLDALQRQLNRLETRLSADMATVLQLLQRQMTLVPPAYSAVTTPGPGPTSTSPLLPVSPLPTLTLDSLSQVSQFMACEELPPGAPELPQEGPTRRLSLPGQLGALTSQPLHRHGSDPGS

| SMILES | hERG current change (%, negative = inhibition) at 10uM [%] |
| --- | --- |
| Cc1nnc(SCC(=O)NC(=O)NC(C)(C)C)s1 | 17.9 |
| CCOP(=O)(c1ccc(N(C)C)cc1)C(O)c1ccc(C)cc1 (centres unmarked) | 14.7 |
| N#CCSc1nnc(COc2ccc3ccccc3c2)o1 | -5.89 |
| CCOc1ccc(C(=S)N2CCCC2)cc1 | -7.78 |
| COc1ccc(C(=O)NNC(=O)c2ccc(C(C)(C)C)cc2)cc1 | 4.1 |
| COc1ccc(CN(CC(=O)NCc2ccco2)C(=O)CCC(=O)Nc2ccccn2)cc1 | -3.13 |
| COc1ccc(N2CCOCC2)c(NC(=O)c2ccc(Br)o2)c1 | 7.74 |
| CSc1nc2ccc(S(=O)(=O)NC3CCCCC3)cc2s1 | -5.97 |
| Cc1cc(C(=O)N/N=C/c2cccc([N+](=O)[O-])c2)c(C)n1-c1ccccc1 | 8.8 |
| C/C(Nc1ccc(F)cc1)=C(/C#N)C(N)=O | 14 |
| C=CCN1C=C2C(=O)C(C)(OC(=O)C3CCCC3)C(=O)C=C2C=C1c1ccsc1 (centres unmarked) | -19.4 |
| CN(C)Cc1c(C#N)c2ccccc2n1C | -11.7 |
| O=C(NC1CCCCC1)n1c(=O)oc2ccc(Cl)cc21 | 16.6 |
| Cc1sc(NC(=O)c2ccc(OCC(C)C)cc2)c(C(N)=O)c1-c1ccc(Cl)cc1Cl | 4.28 |
| COc1ccc(NC(=O)COC(=O)c2cc(=O)c3ccccc3o2)cc1OC | -4.11 |
| CC(=O)Nc1cccc(C(=O)Nc2ccc(S(=O)(=O)N3CCCCC3)cc2)c1 | -10.3 |
| CS(=O)(=O)c1ccc(C(=O)NCc2ccccc2F)cc1 | 6.24 |
| Cc1ccc(NS(=O)(=O)c2c(C(=O)N3CCCCCC3)c(C)n(C)c2C)cc1C | -18 |
| O=C1NC2(CCCCCC2)C(=O)N1Cc1ccccc1F | 3.24 |

| SMILES | hERG current change (%, negative = inhibition) at 10uM [%] |
| --- | --- |
| O=C1c2ccccc2C(=O)N1CCc1nc(-c2ccc(Cl)cc2)no1 | -6.18 |
| CC(=O)COC(=O)CNC(=O)c1ccc(Br)cc1 | -0.971 |
| Cc1cc(C(=O)NC(C)C2CCCO2)no1 (centres unmarked) | 15.7 |
| O=C(Cn1nnc(-c2ccccc2Cl)n1)N/N=C/c1ccc2c(c1)OCO2 | 6.19 |
| CC1(c2ccncc2)Nc2ccccc2-c2nc3ccccc3n21 (centres unmarked) | -22.1 |
| Cc1cc(NC(=O)c2ccc3c(c2)C(=O)N(C(C)(C)C)C3=O)no1 | 32.3 |
| Cc1ccc(/C=c2\sc3n(c2=O)CN(c2ccc(Br)cc2)CN=3)o1 | 6.1 |
| CCOc1cnc(-c2c(-c3c(Cl)cccc3Cl)noc2C)o1 | 5.73 |
| COc1ccccc1N1CCN(C(=O)c2ccc(S(=O)(=O)N3CCCCCC3)cc2)CC1 | -39.8 |
| COc1ccc(-c2nnn(CC(=O)N(CCO)C(C(=O)NC3CCCC3)c3ccc(F)cc3)n2)cc1 (centres unmarked) | 6.68 |
| Cc1ccc(NC(=O)C2CCN(S(=O)(=O)c3cnc[nH]3)CC2)cc1C | -2.42 |
| CC(=O)Nc1ccc(NC(=S)NC(=O)/C=C/c2ccc(Cl)cc2)cc1 | 17.7 |
| COC(=O)[C@@]12CCCCN1[C@H](c1ccc(-c3cc(C(C)=O)cs3)c(OC)c1)[C@H]1C(=O)N(C)C(=O)[C@H]12.O=C(O)C(F)(F)F | 10.5 |
| O=C(N/N=C/c1ccc(OC(=O)c2ccc3c(c2)OCO3)cc1)c1cncc(Br)c1 | 10.8 |
| CCCCS(=O)(=O)Nc1ccc(Cc2ccncc2)cc1 | -50.2 |
| CCCCNc1ncnc2c1nnn2Cc1ccccc1Cl | 15.8 |
| CCOC(=O)C(C)Sc1nc(=O)n2ccccc2n1 (centres unmarked) | 12.7 |
| COc1cccc(CNC(=O)c2cc3ccccn3n2)c1 | -10.1 |
| O=C(Nc1ccc2c(c1)OCO2)c1nn(-c2ccccc2)c(=O)c2ccccc12 | 11 |

| SMILES | hERG current change (%, negative = inhibition) at 10uM [%] |
| --- | --- |
| CCCCOc1ccc(OCCNC(=O)C2CCCN2C(=O)Nc2ccccc2)cc1 (centres unmarked) | 7.95 |
| O=C(CNc1cccc(C(F)(F)F)c1)Nc1cccc(S(=O)(=O)N2CCCC2)c1 | -6.44 |
| COc1ccc(/C=C2\CC/C(=C\c3ccc(OC)c(OC)c3)C2=O)cc1OC | -6.04 |
| COc1ccc(/C=N/NC(=O)c2ccc3c(c2)OCO3)c(C(=O)O)c1OC | 15.2 |
| CCc1c(C)sc(NC(=O)c2cc(C(C)C)on2)c1C#N | 3.42 |
| Cc1nnc(SCc2cc(=O)n3[nH]cnc3n2)s1 | -6.64 |
| CC1C(=O)CCN(C(C)(C)C)C1C.Cl (centres unmarked) | 2.46 |
| COc1ccc(-c2cc(C(F)(F)F)n3nc(C(=O)Nc4c(C)n(C)n(-c5ccccc5)c4=O)c(Cl)c3n2)cc1 | 29.3 |
| COc1ccc(NC(=O)CN(C)C(=O)CSCc2ccc(C)cc2)cc1 | -3.56 |
| CN1C(=O)C(C)(C)c2cc(S(=O)(=O)NCC3CCC(C(=O)NCc4ccc(F)cc4)CC3)ccc21 (centres unmarked) | -47 |
| O=C(c1cc2ccccc2oc1=O)N(Cc1cccs1)CC1CCCO1 (centres unmarked) | -1.86 |
| O=c1oc(CCCO)cc2ccc(C#Cc3ccsc3)cc12 | -8.12 |
| CN(CCOc1ccc(Cl)cc1)CC(=O)Nc1ccc(OC(F)F)cc1 | -71.4 |
| CCn1cc(S(=O)(=O)Nc2ccccc2C(F)(F)F)cn1 | 16.7 |
| Cc1nc2ccccn2c1CN(C)C(=O)C1CCC(=O)N(Cc2cccc(F)c2)C1 (centres unmarked) | -80.2 |
| CCC/C=N/NC(=O)c1cc(Br)ccc1O | 7.54 |
| CC(C)c1csc2nc3n(c(=O)c12)CCCCC3 | -10.7 |
| COc1cc(OC)cc(C(=O)Nc2nc(CC(=O)NC(C)c3ccccc3)cs2)c1 (centres unmarked) | -1.59 |
